Source: PubChem BioAssay AID493208 (National Center for Advancing Translational Sciences (NCATS), 2011)
About 340 (0.77%) of roughly 44,000 compounds were called active. Not shown: some 5% with an inconclusive outcome. The call rests on the fitted dose curve; in most records, active means well fitted inhibition curve with a large enough effect; inconclusive means small, poorly fitted or top-dose-only effect; inactive means flat fitted curve, though single readings scatter. The list shows a part of the results.

Test: Acumen qHTS Assay for Inhibitors of the mTORC1 Signaling Pathway in MEF (Tsc2-/-, p53-/-) Cells: Sytravon;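 further: plate controls were DMSO for no effect and rapamycin for full effect; nearly all actives have a fitted effect of over 50% in size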
Conditions: phospho-rpS6 immunofluorescence/PI, 24 h; series mostly up to 38.3 µM; activity change, negative = inhibition: at the top concentration
Procedure, shortened: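 Tsc2-/-, p53-/- MEFs (empty-vector stable line) in DMEM + 10% FBS were treated with compounds 24 h at 37 degree Celsius, fixed, and immunostained for phospho-rpS6 (Alexa-488) with propidium iodide counterstain. Laser-scanning cytometry gave % positive cells, normalized against 7.5 nM rapamycin and DMSO.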

Activity change, negative = inhibition, inactive:
Cc1ccc(C)c(N2CCN(C(=O)CCn3c(=O)c4cccn4c4cccnc43)CC2)c1 -0.914%, COc1ccccc1Nc1nc(-c2ccccc2Cl)c2cc(Br)ccc2n1 10.2%, O=C(NCC1CCN(Cc2cccc(Cl)c2)CC1)c1cc2ccc3cccnc3c2[nH]1 -2.82%, COc1ccc(OC)c(CCNC(=O)C2=C(C)C(=O)OC23CCC(C)CC3)c1 (stereo not drawn) -18%, O=C(Cn1nc(C(F)(F)F)c2c1CCC2)Nc1ccc(Cl)cc1 -2.62%, Cc1cc(C)c2c(CC(=O)Nc3ccc(S(=O)(=O)Nc4ncccn4)cc3)coc2c1 7.92%, CCc1cccc(C)c1NC(=O)Cn1ccn(Cc2ccc(Cl)cc2)c(=O)c1=O 5.18%, COc1ccc(NC(=O)CN(C)S(=O)(=O)c2cnc[nH]2)cc1Cl -5.09%, c1ccc(-c2nnc(CN3CCN(c4ccccc4)CC3)o2)cc1 4.02%, COc1ccc(-c2noc(COc3ccc(Br)cc3C)n2)cc1OC -2.53%, Cc1ccc2c(c1C)NC(=O)CC2c1ccc(Cl)cc1Cl (stereo not drawn) 1.06%, CCc1ccc(OCC(=O)Nc2ccc(-c3nc4ncccc4o3)cc2)cc1 -0.925%, CCC(O)c1cc2c(cc1NC(=O)c1ccccc1F)OCCO2 (stereo not drawn) -20.6%, O=C(CC1N=C2c3ccccc3N=C(SCc3cccc(F)c3)N2C1=O)NCc1ccc2c(c1)OCO2 (stereo not drawn) 0.105%, O=C(O)c1ccc(NC(=O)c2cn(-c3ccccc3)nc2-c2ccc(Br)cc2)cc1 3.17%, Cc1ccc(N2CCN(C(=O)c3cc(S(=O)(=O)N4CCCCC4)c[nH]3)CC2)c(C)c1 -7.46%, Cc1ccc(-c2cc(C(=O)Oc3ccccc3Cl)no2)cc1C -6.82%, Cc1ccc2nc(Cl)c3cc(C(=O)NC4CCC(C)CC4)sc3c2c1 (stereo not drawn) -4.19%, Cc1cccc(OCC(=O)N(Cc2ccccc2)c2ccccn2)c1 -3%, COC(=O)c1cnc(N2CCN(c3ccc(F)cc3)CC2)c2ccccc12 -3.68%, COc1ccc(CCNC(=O)c2ccc3c(Cl)c4c(nc3c2)CCCC4)c(OC)c1 -7.97%, CS(=O)(=O)N1CCCc2cc(C(=O)Nc3cccc(C(F)(F)F)c3)ccc21 0.833%, COc1ccc(C2C(=O)N(C3CCCCCC3)CC(=O)N2CCC2=CCCCC2)cc1 (stereo not drawn) 16%, CC(=O)c1ccc(N2CCN(c3ncnc4onc(C)c34)CC2)cc1 0.243%, CC1CCC(NC(=O)c2ccc(CS(=O)(=O)c3c(Cl)cccc3Cl)o2)CC1 (stereo not drawn) -18.1%, COc1ccc(OCC(=O)Nc2ccccc2C(=O)OCc2cc(=O)n3nc(C)sc3n2)cc1 0%, COc1cc(-c2nc(-c3cccc(Cl)c3)c(-c3ccccc3)[nH]2)cc(OC)c1OC -3.64%, COC(=O)c1ccc(CSc2nc3c(c(=O)[nH]2)CCC3)cc1 0.189%, CCc1ccccc1NC(=O)Cn1c(=O)n(Cc2ccco2)c(=O)c2sc3ccccc3c21 5.04%, Cc1ccc(NC(=O)Cn2c(=O)n(Cc3ccc4c(c3)OCO4)c(=O)c3ccccc32)c(C)c1 0.604%, Cc1ccc(C)c(N2CCN(S(=O)(=O)c3cnc(N)nc3)CC2)c1 -16%, Cc1ccc2nc(N3CCN(c4cccc(C)c4C)CC3)c3nncn3c2c1 -6.21%, CCOC(=O)c1ccc2c(c1)N(Cc1ccccc1)C(=O)c1ccccc1S2 8.7%, CC(C)CCn1c(=O)c2sccc2n2c(CCCC(=O)NC3CCC(C)CC3)nnc12 (stereo not drawn) -3.75%, CCCCc1ccc(NC(=O)CSc2nc3ccccc3nc2N2CCOCC2)cc1 3.31%, COc1ccc(CCNC(=O)CCSCc2ccccc2Cl)cc1OC 9.67%, O=C(NCCS(=O)(=O)N1CCN(c2ccc(F)cc2)CC1)C1CC(=O)N(c2ccc(F)cc2)C1 (stereo not drawn) 0.624%, CCCCOc1ccc(S(=O)(=O)n2nc(C)c(S(=O)(=O)N3CCC(C)CC3)c2C)cc1 -0.313%, Cc1ccn2c(Nc3ccc4c(c3)OCO4)c(-c3ccc(O)cc3)nc2c1 -0.682%, CCCOC(=O)C(C)n1nnc2sc(-c3ccccc3)cc2c1=O (stereo not drawn) 4.39%, CCCN1CCN(c2ncnc3sc(C(=O)Nc4ccc(N(CC)CC)cc4C)c(C)c23)CC1 1.08%, COc1cccc(CNS(=O)(=O)c2cc(Br)cc3c2N(C(C)=O)C(C)C3)c1 (stereo not drawn) -2.04%, COc1cccc(CC(=O)NCc2ccc3c(c2)CCN3C(C)=O)c1 2.53%, CCc1ccccc1NC(=O)C1CCN(c2nn3c(=O)cc(C)nc3s2)CC1 -0.564%, CN(C)S(=O)(=O)Nc1ccc(-c2cn3ccsc3n2)cc1 3.93%, Cc1ccc2oc(C(=O)Nc3ccc(S(=O)(=O)N(C)Cc4ccccc4)cc3)cc(=O)c2c1 6.04%, Cc1cccc(Cc2cnc(NC(=O)c3ccc4c(c3)CC(c3ccccc3)OC4=O)s2)c1 (stereo not drawn) -3.99%, CCc1ccc(-n2c(=O)c3c4c(sc3n(CC(=O)NCCCOC)c2=O)CCC4)cc1 -12.4%, Cc1ccc(-n2nc(C(=O)N3CCN(c4ccccc4)CC3)c(=O)n(C)c2=O)cc1 0.899%, Cc1ccccc1Cn1c(C)c(CNCc2ccccc2)c(C(=O)O)c1C -3.72%, CC(NC(=O)c1ccc2nc(CCc3ccccc3)oc2c1)c1ccccc1 (stereo not drawn) -2.21%, COc1ccc(NC(=O)c2nc(SCc3ccccc3F)ncc2Cl)cc1 4.03%, O=C(NCCc1ccc(Cl)cc1)c1ccc2c(c1)N(Cc1ccccc1)CCS2 1.89%, Cc1ccc(C)c(NC(=O)CCc2c(C)n(C)c3cc(-c4ccccc4C)nn3c2=O)c1 0.707%, COc1ccc(NC(=O)CN(C)S(=O)(=O)c2ccc3[nH]c4c(c3c2)CCCC4)cc1OC 0.207%, CC(C)c1ccc(C2=CC(c3cccc(Cl)c3)n3ncnc3N2)cc1 (stereo not drawn) -0.919%, Cc1ccc(NC(=O)CCS(=O)(=O)c2cccc3nonc23)c(C)c1 1.01%, CCCN1C(C(=O)c2ccccc2)=C(OC(=O)c2ccc(F)cc2)c2ccccc2S1(=O)=O -7.84%, Cc1ccc(C)c(Cn2c3ccccc3c3cnn(CC(=O)N4CCCCC4)c(=O)c32)c1 -6.44%, CCOc1ccc(NC(=O)Cn2c(CCC(=O)O)ccc2-c2ccc(Cl)cc2)cc1 -7.89%, COc1ccc(Cl)cc1NC(=O)c1cc(S(=O)(=O)N2CCc3ccccc32)cn1C 3.18%, Cc1cccc(-n2c(=O)c3ccccc3n(Cc3ccccc3C#N)c2=O)c1 4.28%, Cc1nn(CCC(=O)NC(C)C)c(=O)c2nn(-c3ccccc3)c(C)c12 -7.52%
